Assay results reported in PubChem BioAssay AID1347073 (National Center for Advancing Translational Sciences (NCATS), 2019).
In all, about 45,000 compounds went through this assay and about 200 (0.44%) were called active. Not shown: some 7% with an inconclusive outcome. Calls follow the shape of the dose curve; as a rule, active = well fitted activation curve with a large enough effect; inconclusive = small, poorly fitted or top-dose-only effect; inactive = no such curve, though single readings can be large or run the other way. Some of the results follow.

Assay: qHTS of TDP-43 Inhibitors: NCGC Sytravon Library Screen; also: 0% is about no effect; nearly all actives have a fitted effect of over 55% in size
Conditions: yeast TDP-43 toxicity rescue, BacTiter-Glo growth, 24 h; series mostly up to 46.1 µM; growth rescue (activation): at the top concentration
Procedure, shortened: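 TDP-43-expressing yeast, pregrown in raffinose, seeded at OD600 0.02 in galactose medium with compound for 24 hr at 30 deg C. Growth read by BacTiter-Glo luminescence, so rescue of toxicity appears as activation.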

Row | SMILES | growth rescue (activation)
1 | Cn1cc(C(=O)c2cccc(Cl)c2)cc1C#N | inactive: -5.88%
2 | O=C(O)CCSc1ncnc2sc(-c3ccccc3)cc12 | inactive: 15.4%
3 | CCN1C(=O)N(CC)C2C1N(C(C)=O)C(=O)N2C(C)=O (centres undefined) | inactive: -5.19%
4 | COc1ccc(CCN(C)C(=O)CCc2nnc(-c3ccccc3)o2)cc1OC | inactive: 19.9%
5 | COc1ccc(-c2csc(N3CCC(c4ccccc4)CC3)n2)cc1 | inactive: 2.66%
6 | Cc1ccc(-c2c[n+](CC(=O)OCc3ccccc3)c3n2CCC3)cc1 | inactive: 10.2%
7 | CC(=O)Nc1ccc(NC(=O)CSc2nnc(-c3cc4ccccc4o3)n2C)cc1 | inactive: 6.85%
8 | O=C(C1=C(O)C(=O)N(Cc2ccccc2)C1c1cccnc1)c1ccco1 (centres undefined) | inactive: 23.1%
9 | CCc1c(C(=O)N/N=C/c2ccc(OCc3ccc(F)cc3)c(OC)c2)nnn1-c1nonc1N | inactive: 16.8%
10 | CC1CCCC(NC(=O)COC(=O)COc2ccc(C#N)cc2)C1C (centres undefined) | inactive: 15.1%
11 | COc1ccc(C2C3=C(CC(C)(C)CC3=O)Nc3cc4c(cc32)OCO4)cc1 (centres undefined) | inactive: 29.9%
12 | COc1cccc(CC(=O)NCC2(N3CCCCC3)CCCCC2)c1 | inactive: 4.77%
13 | CC(=O)NS(=O)(=O)c1ccc(NC(=O)c2ccc(-n3nc(C)cc3C)cc2)cc1 | inactive: 9.12%
14 | O=C(O)C1CCCN1c1nc(C(F)(F)F)nc2ccccc12 (centres undefined) | inactive: -0.315%
15 | COc1ccc(OC)c(NC(=O)Cn2c(CCC(=O)O)ccc2-c2ccccc2)c1 | inactive: -6.35%
16 | CC(=O)NCCC(=O)N(C)CC1CCN(CCc2cccc(C(F)(F)F)c2)CC1 | inactive: 7.1%
17 | COc1ccc(OC)c(-c2csc(NC(=O)Cc3ccc(OC)c(OC)c3)n2)c1 | inactive: 30.2%
18 | CC(C)CCN1C(=O)c2ccccc2CC1(C)C(=O)NC1CCCCC1 (centres undefined) | inactive: 8.38%
19 | CCN(CC(=O)NC(=O)NCc1ccco1)Cc1nc2ccccc2c(=O)[nH]1 | inactive: 11.2%
20 | O=C(CCCn1c(=O)[nH]c2ccsc2c1=O)NC1CCCCC1 | inactive: -14.1%
21 | COc1cc2c(cc1OC)CN(C(=O)c1ccc(S(=O)(=O)N3CCCCC3)cc1)CC2 | inactive: 19.7%
22 | Cc1cc(/C=C(/C#N)c2nc3ccccc3[nH]2)c(C)n1-c1cc(C(=O)O)cc(C(=O)O)c1 | inactive: 1.66%
23 | COc1cc(/C=N/OCC(=O)NC23CC4CC(CC(C4)C2)C3)ccc1OCc1ccccc1 | inactive: 10.9%
24 | Cc1ccnc(NC(c2cccnc2)c2ccc3cccnc3c2O)c1 (centres undefined) | inactive: 1.15%
25 | Cc1cccc(/C=N/NC(=O)c2ccc(NC(=O)c3ccc(F)cc3)cc2)n1 | inactive: 17.5%
26 | COc1ccccc1N1CCN(C2CCN(C(=O)c3ccc(F)cc3)CC2)CC1 | inactive: 5.77%

Row | SMILES | growth rescue (activation)
27 | c1ccc(-c2nnc(-c3ccccn3)nc2NC2CCCCC2)cc1 | inactive: -64.5%
28 | Cc1onc(C(=O)NCc2cccs2)c1[N+](=O)[O-] | inactive: 8.14%
29 | O=C(NC1CC1)C1CCN(C2CCN(C(=O)/C=C/c3cccs3)CC2)CC1 | inactive: 2.53%
30 | COc1ccc(/C=C/C=C2\N=C(SC)SC2=O)cc1 | inactive: 1.74%
31 | C=CCn1c(=O)c2ccccc2n2c(SCC(C)=O)nnc12 | inactive: 7.4%
32 | Cc1cc(C(=O)Nc2nnc(-c3ccccc3)s2)no1 | inactive: -12.8%
33 | CCOc1ccc(C(C(=O)NCC2CCCO2)N(C(=O)c2snc(C(N)=O)c2N)c2cccc(F)c2)cc1 (centres undefined) | inactive: 4.32%
34 | Cc1ccc2c(c1)C(C)(c1ccccc1)CC(C)(C)N2C(=O)c1ccc(F)cc1 (centres undefined) | inactive: -8.61%
35 | Cc1ccc(N2C(=O)CC(Cc3cccc(C)c3)C2=O)cc1 (centres undefined) | inactive: 18.1%
36 | COc1ccc(NC(=O)C2CC(c3ccc(Cl)cc3)=NO2)cc1OC (centres undefined) | inactive: 7.89%
37 | Cc1cc(NC(=O)c2ccc(N3C(=O)C4C5C=CC(C5)C4C3=O)cc2)no1 (centres undefined) | inactive: -9.83%
38 | COc1cc(OC)cc(C(=O)N[C@H](C(=O)NCc2ccco2)C(C)C)c1 | inactive: 9.15%
39 | COc1ccc(NC(=O)O/N=C/c2ccncc2)cc1 | inactive: -5.29%
40 | CCOc1ccc(-n2cc(-c3ccc(OC)c(OC)c3)[nH]c2=S)cc1 | inactive: 24.3%
41 | CCCOc1ccc(C(=O)NCCc2ccccc2)cc1 | inactive: 15.8%
42 | Cc1ccc(-c2c3c(=O)n(C)c(=O)n(C)c3cn2N2CCOCC2)cc1 | inactive: 29.5%
43 | O=C(c1nn(Cc2ccccc2)c(=O)c2ccccc12)N1CCN(C/C=C/c2ccccc2)CC1 | inactive: 5.89%
44 | CSCCC(C)N1CCC(Oc2ccc(C(=O)N3CCCC3)cc2)CC1 (centres undefined) | inactive: -6.22%
45 | CCCC1=Nc2cc(C(=O)NCCCOCC)ccc2Sc2ccccc21 | inactive: 21.5%
46 | CC1CCCC(NC(=O)COC(=O)CSc2ccc3ccccc3c2)C1C (centres undefined) | inactive: -6.49%
47 | CCn1cc(C(=O)O)c(=O)c2cc(F)c(N3CCN(C(=S)NC(=O)c4cccc(C)c4)CC3)cc21 | inactive: 28.7%
48 | CN(C)CCCNS(=O)(=O)c1ccc(N2CCN(Cc3ccc4c(c3)OCO4)CC2)c([N+](=O)[O-])c1 | inactive: -11.3%
49 | c1ccc(N2CCCCC2)c(Nc2nc3ccccc3n3cnnc23)c1 | inactive: 18.5%
50 | CCCC(C)NC(=O)CSc1nc2ccc(C)cc2[nH]1 (centres undefined) | inactive: -18.2%
51 | O=C(CC12CC3CC(C1)CC(CC(=O)NC1=NCCS1)(C3)C2)NC1=NCCS1 | inactive: 10.1%
52 | CN(C)C(CNC(=O)C1CCN(C(=O)/C=C/c2ccccc2)CC1)c1ccccc1 (centres undefined) | inactive: -6.21%

Row | SMILES | growth rescue (activation)
53 | COc1ccc(C(O)c2ncc(-c3ccccc3OC)[nH]2)cc1F (centres undefined) | inactive: 5.72%
54 | COc1ccc(C(=O)NC(C)c2ccccc2)cc1Br (centres undefined) | inactive: 5.42%
55 | Cc1ccc(-c2csc(NC(=O)c3ccc4c(=O)n5c(nc4c3)CCCCC5)n2)cc1 | inactive: -1.79%
56 | CCC(CC)c1nnc(NC(=O)CN2C(=O)C3C4C=CC(C4)C3C2=O)s1 (centres undefined) | inactive: -12.2%
57 | COc1ccc(Nc2ccc(S(=O)(=O)N3CCCCC3)cc2[N+](=O)[O-])cc1OC | inactive: 22.5%
58 | COc1ccc(CSCCc2n[nH]c(=S)n2-c2ccccc2)cc1C | inactive: 16.6%
59 | CN(C)S(=O)(=O)c1cccc(C(=O)N=C2N=C3C=CC(Cl)=CN3Cc3ccccc32)c1 | inactive: 17.8%
60 | CC(C)(C)OC(=O)N/N=C\c1ccc[nH]1 | inactive: 4.9%
61 | O=C1CCc2cc(S(=O)(=O)NCCCC(=O)N3CCN(Cc4ccc5c(c4)OCO5)CC3)ccc2N1 | inactive: 0.423%
62 | O=C(C(c1ccccc1)c1ccccc1)N1CCN(CCN2C(=O)c3cccc4cccc(c34)C2=O)CC1 | inactive: -5.28%
63 | Cc1nc2ccccc2nc1CN1CCN(Cc2ccc(F)c(F)c2)C(CCO)C1 (centres undefined) | inactive: -7.19%
64 | CCCCOc1cc(C)nc(NCc2ccccc2)n1 | inactive: 5.02%
65 | COc1ccc(C2C(C#N)=C(N)Oc3cc(C)n(Cc4ccncc4)c(=O)c32)cc1 (centres undefined) | inactive: 23.8%
66 | CCCS(=O)(=O)N1CCC(C(=O)NCCN2CCCC2)CC1 | inactive: -0.7%
67 | CC(=O)Nc1ccc(SCC(=O)NC(=O)c2ccc(S(=O)(=O)N(C)C)cc2)cc1 | inactive: 24.2%
68 | CC(O)(c1ccccc1)c1nc(-c2ccc(Cl)cc2)cs1 (centres undefined) | inactive: -25.8%
69 | COc1ccc(NC(=O)C2CCCN(S(=O)(=O)c3c(C)[nH]c(=O)[nH]c3=O)C2)cc1Cl (centres undefined) | inactive: 0.449%
70 | CCN(CC)S(=O)(=O)c1ccc(S(=O)(=O)NCc2cccs2)cc1 | inactive: -17.7%
71 | O=C(Nc1ccc(NC(=O)c2ccccc2F)cn1)c1ccco1 | inactive: -3.53%
72 | COc1cc([N+](=O)[O-])ccc1-c1ccc(/C=N/NC(=O)OC(C)(C)C)o1 | inactive: 9.36%
73 | Cc1nc2nc(C)c(CCC(=O)NC3CCCCC3)c(C)n2n1 | inactive: 14.2%
74 | CCC(Sc1nc2ncccc2o1)C(=O)Nc1cccc(C)c1 (centres undefined) | inactive: 9.26%
75 | CC(=O)Nc1cccc(-c2ccnc3c2CC(C)(C(=O)Nc2cccnc2)O3)c1 (centres undefined) | inactive: -5.72%
76 | O=C(NCc1ccco1)c1ccc(-c2ccc3nccn3c2)cc1 | inactive: -0.73%
77 | CC1(C)c2[nH]c3ccccc3c2C[C@H]2C(=O)N(N)CC(=O)N21 | inactive: 9.33%
78 | CCC(C)C(NS(=O)(=O)c1ccc(C)cc1)C(=O)N1CCOCCOCCOCC1 (centres undefined) | inactive: 5.61%

Row | SMILES | growth rescue (activation)
79 | O=C(NCCc1ccc2c(c1)OCCO2)c1ccc([N+](=O)[O-])cc1Cl | inactive: 21.5%
80 | COc1ccccc1CCNC(=O)CCCn1c(=O)c2cccn2c2cccnc21 | inactive: 10.9%
81 | CNC(=S)NCCN1CCOCC1 | inactive: 20.4%
82 | CCC/C=N/NC(=O)CNC(=O)c1ccccc1Cl | inactive: 0.963%
83 | O=CC1=C(N2CCOCC2)/C(=C\c2ccccc2)CC1 | inactive: 0.476%
84 | COC(=O)c1ccc(NC(=O)Nc2ccc(F)cc2F)cc1 | inactive: 9.22%
85 | CC(=O)C1=C(O)C(=O)N(CCCn2ccnc2)C1c1ccc(Br)cc1 (centres undefined) | inactive: 17.3%
86 | O=C(Nc1ccc(Cl)cc1C(F)(F)F)C(Sc1nnc(-c2cccs2)o1)c1ccccc1 (centres undefined) | inactive: 12.7%
87 | CN(CC(=O)N1CCN(c2ccccc2)CC1)S(=O)(=O)c1cccs1 | inactive: 7.12%
88 | CCOC(=O)c1c(NC(=O)/C=C/c2ccc(Cl)cc2)sc2c1CCC(C)C2 (centres undefined) | inactive: 4.09%
89 | NC(=O)CC(NC(=O)c1ccc(Cl)cc1)C(=O)NCCc1ccc(S(N)(=O)=O)cc1 (centres undefined) | inactive: 8.1%
90 | CCCCNC(=S)N(Cc1c(C)noc1C)c1ccccc1 | inactive: 8.72%
91 | CC(C)(C)c1ccc(CC(=O)N2CCC2(C)C(=O)NCc2cccc3ccccc23)cc1 (centres undefined) | inactive: -0.303%
92 | O=C(C[n+]1cccc(C(=O)Nc2ccccc2)c1)c1ccc([N+](=O)[O-])cc1 | inactive: 12.3%
93 | O=C(N/N=C/c1ccc(O)c(O)c1)NC12CC3CC(CC(C3)C1)C2 | inactive: 0.859%
94 | O=C(NN=C1CCCCCCC1)c1ccc2ccccc2n1 | inactive: 9.52%
95 | CN(C)CCCNC(=O)c1ccc(-c2cc3nc(NCc4cccnc4)n(C)c(=O)c3s2)cc1 | inactive: 14%
96 | CCOc1ccc(S(=O)(=O)N2CCC(C(=O)NCc3ccccn3)CC2)cc1Cl | inactive: -4.66%
97 | C=C(C)c1cccc(C(C)(C)NC(=O)NC(c2ccccc2)c2ccc(OC)cc2)c1 (centres undefined) | inactive: -14.3%
98 | CC1(C)CC(=O)C(C(N)=NC(=O)c2ccccc2)=C(O)C1 | inactive: 5.07%
99 | Cn1c(=O)c2cc(NC(=O)CC(C)(C)C)ccc2n1-c1ccccc1F | inactive: -2.83%
100 | CNc1cnc(-c2cccc(C(=O)N3CCOCC3)c2)cn1 | inactive: -12.4%
101 | CCOC(=O)C1=C(C)NC(=S)N(C(C)=O)C1c1ccc(OC)c(OC)c1 (centres undefined) | inactive: 14.2%
102 | COc1cc(NC(=O)c2ccc(-c3c(C)noc3C)c3ccoc23)cc(OC)c1OC | inactive: 16.2%
103 | NC(=O)c1nsc(C(=O)N(c2ccccc2)C(C(=O)NCc2ccc(F)cc2)c2ccc(O)cc2)c1N (centres undefined) | inactive: 18%
104 | COCCN1C(=O)/C(=C/c2ccc(N3CCCC3)cc2C)SC1=S | inactive: 19.4%
